Source: patent US20170306038A1, “COMPOSITIONS AND METHODS OF USE FOR AUGMENTED IMMUNE RESPONSE AND CANCER THERAPY” (priority 2014, published 2017)

Tests used:
rodent GITR = assay: ELISA binding to GITR extracellular domain, rodent; design: species or system rat, mouse
Protocol: Binding of the MABs to GITR from various species, various alanine mutant constructs or GITR extracellular domain—was assessed using a 384-well plate was coated with rat, mouse, human or cyno GITR extracellular domain (ECD) at 50 ng per well and incubated overnight at 4° C. The plate was blocked with a solution of 1% BSA in PBS for one hour at room temperature and then rinsed three times with PBST. The MAB was then diluted to 0.5 μg/mL or 1 μg/mL in PBS and 20 μL was added to each well. The plate was incubated for 1 hour at room temperature and then washed three times with PBST. Anti-human kappa antibody (Sigma #A7164), anti-human gamma antibody (Jackson Immunoresearch 109-036-098), goat anti-mouse antibody (Jackson ImmunoResearch 115-035-071) conjugated to HRP was diluted 1:5000 in Blocking Buffer (25 μL) and added to each well, or a hrp conjugated HIS antibody (QIAGEN 1014992) diluted 1:1000 in Blocking Buffer was added. The plate was incubated for 1 hour at room temperature, and then washed six times with PBST. 25 μL of SureBlue TMB (KPL 52-00-02) substrate was added to each well and the plate was incubated for about 10 min at room temperature. Plates were read at 650 nm in a spectrophotometer.

cyno CD4+ Tcells = assay: FACS binding to isolated cyno PBMCs; design: species or system cynomolgus; details: FACS of isolated PBMCs
Protocol: Cynomolgus monkey PBMCs were prepared and GITR binding determined using MABs. Briefly, cynomolgus blood was transferred into 50 mL conical tubes (Falcon, #352098), then diluted 1:2 in PBS (HyClone, #SH30256.01) and mixed. Diluted blood was carefully layered on top of 18 mL of 90% Ficoll Paque PLUS (GE Healthcare #17-1440-03 diluted in PBS), and tubes were spun at 2,000×g in a bench top centrifuge for 30 minutes at room temperature, with no brake. The plasma layer was carefully removed without disturbing the diffuse PBMC layer on top of the Ficoll. PBMCs were then carefully harvested and PBS was added to the isolated PBMCs until the volume in the conical tube was 45 mL, mixed, and then spun at 300×g in a bench top centrifuge for 15 minutes at room temperature. Supernatant was carefully aspirated and 4 mL of 1×BD Lysing solution (BD #555899) was added and the samples were gently vortexed. […]
Plates were prepared with cells resuspended in 200 μL of cold PBS. […] Plates were covered with foil (Beckman Coulter, #538619) and stored at 4° C. until ready to read. On the day of FACS read the plate was spun in a bench top centrifuge at 3,200 RPM for 1 minute and 50 μL of CML latex beads (Life Technologies #C37259), 4×10^5/mL in FACS Buffer, was added to each well. The plates were read on a BD Fortessa flow cytometer and data analyzed using FlowJo.

[1] = tested on: hGITR on mouse CD8+ T cells; assay: In vitro splenocyte assay, hGITR-hGITRL knock-in mice; type: cell-based
Protocol: In vitro splenocyte assays were carried out using spleens isolated from mice. Briefly, spleens from mice were dissociated by automated homogenization in 5 mL AutoMACS Rinsing Solution (Miltenyi Biotech 130-091-222) containing 5% BSA (Miltenyi Biotech 130-091-376) using gentleMACS C tubes (Miltenyi Biotech 130-096-334) on a gentleMACS Octo Dissociator (Miltenyi Biotech 130-095-937). Homogenates were strained through a 0.70 uM pore size cell strainer (Fisher Scientific 22363548) and washed with 10 mL AutoMACS buffer. Splenocytes were resuspended and plated at 100,000 cells/well in RPMI (HyClone SH30027.02)+10% human serum (Cellgro 35-060.C1)+1× Pen/Strep/L-Glut (Gibco 15 140-112) in a 96-well tissue culture plate (Costar 3799). […] After 48 hours, cells were either analyzed immediately or pulsed with control or therapeutic antibody for 30 minutes to 96 hours, stained with fluorophore-conjugated antibodies and analyzed by flow cytometry.
Flow cytometry: For surface markers, cells were stained with anti-CD19 (BD Biosciences 562291), anti-CD8 (Biolegend 100725), anti-CD4 (eBioscience 25-0041), anti-CD69 (BD Biosciences 561238), anti-hGITR (Miltenyi Biotech 130-092-895) and anti-hIgG (Life Sciences A-10631) antibodies for 30 minutes at 4C. […] Cells were read on a BD LSRFortessa cytometer using BD FACSDiva software (BD Biosciences) and flow data was analyzed using FlowJo software (TreeStar Inc.).

binding to rodent GITR in ELISA (rodent GITR): not murine GITR
B1: MAB7: MAB4 variant with glycation site KH changed to RH; heavy chain SEQ ID NO:100, light chain SEQ ID NO:66 (antibody)
heavy: EVQLVESGGGLVQSGGSLRLSCAASGFSLSSYGVDWVRQAPGKGLEWVGVIWGGGGTYYASSLMGRFTISRDNSKNTLYLQMNSLRAEDTAVYYCARHAYGHDGGFAMDYWGQGTLVTVSSASTKGPSVFPLAPSSKSTSGGTAALGCLVKDYFPEPVTVSWNSGALTSGVHTFPAVLQSSGLYSLSSVVTVPSSSLGTQTYICNVNHKPSNTKVDKRV[human IgG1 Fc not printed]
light: EIVMTQSPATLSVSPGERATLSCRASESVSSNVAWYQQRPGQAPRLLIYGASNRATGIPARFSGSGSGTDFTLTISRLEPEDFAVYYCGQSYSYPFTFGQGTKLEIKRTVAAPSVFIFPPSDEQLKSGTASVVCLLNNFYPREAKVQWKVDNALQSGNSQESVTEQDSKDSTYSLSSTLTLSKADYEKHKVYACEVTHQGLSSPVTKSFNRGEC
binding to cyno CD4+ Tcells (cyno CD4+ Tcells): binds
binding to hGITR expressed on CD8+ cells ([1]; splenocytes stimulated with a-CD3 and a-CD28): effectively binds hGITR expressed on CD8+ cells
T cell activation (pIKK staining, CD25+) ([1]; stimulated T cells): correlates with increased Tcell activation
